B1: human apolipoprotein E3 (intact apoE3) (natural protein)
chain: not shown
B2: human apolipoprotein E4 (intact apoE4) (natural protein)
chain: not shown
B3: apoE3 C112S/S290C-pyrene (natural protein)
chain: not shown
modifications: N-(1-pyrene)maleimide on the cysteine at 290 (S290C-pyrene)
B4: apoE4 S290C-pyrene (natural protein)
chain: not shown
modifications: N-(1-pyrene)maleimide on the cysteine at 290 (S290C-pyrene)

Target: the molecule itself
Assay: SEC

Protein | binding result
B1 | binds
B2 | binds
B3 | binds
B4 | binds

From paper PMC4342298 (Biochimica et biophysica acta, 2014)
